The results in this text go back to DBAASP.

Molecules are shown by their SMILES. Converted amounts (≈) assume the structure as drawn. “And” between values parts separate entries of the source, which are not always exact repeats. Identical values can stand only once. Bounds are passed on as bounds.

Test systems include Pseudomonas aeruginosa; Pseudomonas fluorescens; Ralstonia pickettii; Escherichia coli UB1005; Staphylococcus aureus; Candida albicans; Shigella dysenteriae; Lactococcus garvieae; Serratia sp. ATCC 21074; Escherichia coli K-12; Aeromonas salmonicida; Edwardsiella ictaluri; Yersinia ruckeri.
Assay in all cases: ≥ marks a high value that may be exact or a test limit, other limits are often not marked
For assay [1], the system named is Pseudomonas aeruginosa M917.
The test system of assay [2] is Achromobacter xylosoxidans.
The subject of assay [3] is Pseudomonas aeruginosa M76.
Assay [4] has as its system Salmonella enterica serovar Typhimurium.
Assay [5] deals with Pseudomonas aeruginosa ATCC 9027.
Assay [6] relates to Staphylococcus aureus ATCC 6538.
Assay [7] relates to Pseudomonas aeruginosa PAO1.
Assay [8] relates to Pseudomonas aeruginosa M1426.
The test system of assay [9] is Pseudomonas aeruginosa R70.
Assay [10] relates to Pseudomonas aeruginosa M1251.
Assay [11] has as its system Stenotrophomonas maltophilia.
Assay [12] relates to Acinetobacter baumannii ATCC 19606.
Assay [13] deals with Escherichia coli ATCC 25922.
Assay [14] has as its system Staphylococcus aureus ATCC 2592.
Assay [15] deals with Helicobacter pylori NCTC 11637.
The test system of assay [16] is Staphylococcus aureus ATCC 29213.
The test system of assay [17] is Klebsiella pneumoniae ATCC 13883.
Assay [18] concerns Candida albicans ATCC 2002.
Assay [19] deals with Pseudomonas aeruginosa ATCC 27853.
Assay [20] relates to Streptococcus mutans ATCC 25175.
Assay [21] concerns Escherichia coli ATCC 27325.
In assay [22] the test system is Cryptococcus neoformans ATCC 34881.
In assay [23] the test system is Candida albicans ATCC 10231.
Assay [24] concerns Saccharomyces cerevisiae ATCC 44774.
Assay [25] concerns Pseudomonas putida ATCC 17426.
For assay [26], the system named is Staphylococcus aureus ATCC 15752.
Assay [27] deals with Salmonella enterica subsp. enterica serovar Enteritidis ATCC 13076.
The subject of assay [28] is Staphylococcus aureus USA 300.
The subject of assay [29] is Salmonella enterica subsp. enterica serovar Typhimurium ATCC 15277.
Assay [30] deals with Bacillus subtilis ATCC 62037.
Assay [31] concerns Pseudomonas aeruginosa Z61.
Assay [32] relates to Pseudomonas aeruginosa H744.
The subject of assay [33] is Salmonella enterica subsp. enterica serovar Typhimurium ATCC 14028s.
The subject of assay [34] is Pseudomonas aeruginosa H374.
Assay [35] has as its system Pseudomonas aeruginosa K799.
For assay [36], the system named is Pseudomonas aeruginosa H547.
The test system of assay [37] is Micrococcus luteus ATCC 4698.
Assay [38] relates to Proteus mirabilis ATCC 25933.
Assay [39] has as its system Escherichia coli KCTC 2433.
Assay [40] deals with Staphylococcus epidermidis ATCC 12228.
The test system of assay [41] is Bacillus subtilis ATCC 6633.
For assay [42], the system named is Candida albicans ATCC 36232.
Assay [43] deals with Staphylococcus aureus KCTC 3881.
The test system of assay [44] is Klebsiella pneumoniae ATCC 10031.
Assay [45] concerns Shigella dysenteriae ATCC 9752.

As for `CC(C)C[C@H](NC(=O)[C@H](CC(C)C)NC(=O)[C@H](CCCCN)NC(=O)[C@H](CCCCN)NC(=O)[C@H](CC(C)C)NC(=O)[C@H](C)NC(=O)[C@H](CCCCN)NC(=O)[C@H](C)NC(=O)[C@H](CC(C)C)NC(=O)[C@H](CC(C)C)NC(=O)[C@H](CCCCN)NC(=O)[C@H](C)NC(=O)[C@@H](N)Cc1ccccc1)C(N)=O` [FAKLLAKALKKLL], the MIC against Pseudomonas aeruginosa is 7.77 µM (≈ 11.3 µg/mL); in [1], 22 µM (≈ 32 µg/mL); in assay [2] it was ≥ 43.9 µM; in the assay with Pseudomonas fluorescens, 11 µM (≈ 16 µg/mL); against Ralstonia pickettii it was 11 µM (≈ 16 µg/mL); in assay [3], 11 µM (≈ 16 µg/mL). Also, the minimal inhibitory concentration (MIC) amounted to 2.75 µM (≈ 4 µg/mL) against Escherichia coli UB1005; 2.75 µM (≈ 4 µg/mL) in assay [4]; 3.43 µM (≈ 5 µg/mL) in assay [5]; 2.75 µM (≈ 4 µg/mL) in the assay with Staphylococcus aureus; 3.43 µM (≈ 5 µg/mL) in [6]; 5.49 µM (≈ 7.99 µg/mL) in assay [7]. In addition, the MIC in [8] worked out at 5.49 µM (≈ 7.99 µg/mL); in assay [9], 2.75 µM (≈ 4 µg/mL); in assay [10], 5.49 µM (≈ 7.99 µg/mL); against Candida albicans, 11 µM (≈ 16 µg/mL); in [11], 1.37 µM (≈ 2 µg/mL).

With `CC(C)C[C@H](NC(=O)CN)C(=O)N[C@@H](CC(C)C)C(=O)N[C@@H](CCCN=C(N)N)C(=O)N[C@@H](C)C(=O)N[C@@H](CO)C(=O)N[C@@H](CO)C(=O)N[C@H](C(=O)N[C@@H](Cc1c[nH]c2ccccc12)C(=O)NCC(=O)N[C@@H](CCCN=C(N)N)C(=O)N[C@@H](CCCCN)C(=O)N[C@@H](Cc1ccc(O)cc1)C(=O)N[C@@H](Cc1ccc(O)cc1)C(=O)N[C@H](C(=O)N[C@@H](CC(=O)O)C(=O)N[C@@H](CC(C)C)C(=O)N[C@@H](C)C(=O)NCC(=O)N[C@@H](CS)C(=O)N[C@@H](C)C(=O)N[C@@H](CCCCN)C(=O)N[C@@H](C)C(=O)O)C(C)C)C(C)C` [GLLRASSVWGRKYYVDLAGCAKA], the MIC in assay [12] is 64 µM (≈ 159 µg/mL); in assay [13], 12.1 µM and 32 µM; in [14], 2.01 µM (≈ 5 µg/mL); in [15], 8.05 µM (≈ 20 µg/mL); in assay [16] it was 8 µM (≈ 19.9 µg/mL); in assay [17], 16 µM (≈ 39.8 µg/mL). Further, the values for the MIC (in assay [18]; against Shigella dysenteriae; in assay [19]) were 10.1 µM (≈ 25 µg/mL), 12.1 µM (≈ 30 µg/mL) and > 64 µM, respectively.

For the molecule `CC(C)[C@H](NC(=O)[C@H](CCCCN)NC(=O)CNC(=O)CNC(=O)[C@H](CCC(N)=O)NC(=O)[C@H](CCCCN)NC(=O)CNC(=O)[C@H](CCCNC(=N)N)NC(=O)CNC(=O)[C@@H](N)CCCCN)C(=O)N[C@@H](CCCNC(=N)N)C(=O)N[C@@H](C)C(=O)N[C@@H](CCCCN)C(=O)N[C@@H](C)C(=O)N[C@@H](CCCCN)C(=O)N[C@H](C(=O)N[C@@H](CCCNC(=N)N)C(=O)N[C@@H](CO)C(=O)N[C@@H](CO)C(=O)O)[C@@H](C)O` [KGRGKQGGKVRAKAKTRSS], the MIC against Lactococcus garvieae is 5 µM (≈ 10 µg/mL); in [20], 1 µM (≈ 2 µg/mL); with Serratia sp. ATCC 21074 it was 2 µM (≈ 4 µg/mL); in [21], 0.5 µM (≈ 1 µg/mL); in [22], 1 µM (≈ 2 µg/mL); in assay [23], 1 µM (≈ 2 µg/mL). The MIC in the assay on Escherichia coli K-12 was ≥ 84 µM; against Aeromonas salmonicida, 5 µM (≈ 10 µg/mL); against Edwardsiella ictaluri, 5 µM (≈ 10 µg/mL); in [24], 1 µM (≈ 2 µg/mL); in assay [25], 0.5 µM (≈ 1 µg/mL); in [26] it was 2 µM (≈ 4 µg/mL). Further, the MIC is 7.5 µM (≈ 15 µg/mL) with Yersinia ruckeri; 2 µM (≈ 4 µg/mL) in [27]; ≥ 84 µM in assay [28]; 1 µM (≈ 2 µg/mL) in [29]; 1 µM (≈ 2 µg/mL) in [30].

For the molecule `CC(C)C[C@H](NC(=O)[C@H](C)NC(=O)[C@H](CC(N)=O)NC(=O)[C@@H]1CCCN1C(=O)CNC(=O)[C@H](CO)NC(=O)[C@H](CC(N)=O)NC(=O)[C@H](C)NC(=O)[C@H](Cc1ccccc1)NC(=O)[C@H](CCCCN)NC(=O)[C@H](CCCCN)NC(=O)[C@H](C)NC(=O)[C@H](CCCCN)NC(=O)[C@H](Cc1c[nH]c2ccccc12)NC(=O)[C@H](Cc1c[nH]c2ccccc12)NC(=O)[C@H](CCCCN)NC(=O)[C@@H](N)CCCCN)C(=O)N[C@@H](CCC(N)=O)C(=O)N[C@H](C(=O)N[C@@H](CC(C)C)C(=O)N[C@@H](C)C(=O)N[C@@H](CCC(N)=O)C(=O)O)[C@@H](C)O` [KKWWKAKKFANSGPNALQTLAQ], the MIC (in assay [31]; in assay [32]; in assay [33]; in the assay on Escherichia coli UB1005; in [34]; in assay [35]) was 25.4 µM (≈ 64 µg/mL) in each case. The molecule also yielded an MIC in assay [36] of 25.4 µM (≈ 64 µg/mL).

For `CC[C@H](C)[C@@H]1NC(=O)[C@H](CCCCN)NC(=O)[C@H](CC(C)C)NC(=O)[C@H](C)NC(=O)[C@H](CCCCN)NC(=O)[C@@H](NC(=O)[C@@H](NC(=O)[C@@H](NC(=O)[C@H](CC(C)C)NC(=O)CNC(=O)[C@H](CC(C)C)NC(=O)[C@@H]2CCCN2C(=O)[C@H](Cc2c[nH]c3ccccc23)NC(=O)[C@@H](N)C(C)C)C(C)C)[C@@H](C)CC)CSSC[C@@H](C(=O)O)NC1=O` [VWPLGLVICKALKIC], the MIC in assay [37] is 0.942 µM (≈ 1.56 µg/mL); in assay [38], ≥ 60.4 µM; in [39], 9.06 µM (≈ 15 µg/mL); in assay [5], > 60.4 µM; in assay [40], 3.77 µM (≈ 6.24 µg/mL); in assay [41], 3.77 µM (≈ 6.24 µg/mL). Moreover, the MIC in assay [42] came out at 15.1 µM (≈ 25 µg/mL); in [43] it was 1.89 µM (≈ 3.13 µg/mL); in assay [44] it was 9.06 µM (≈ 15 µg/mL); in assay [45], 18.1 µM (≈ 30 µg/mL).
